Results published in PubChem BioAssay (NCI).
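96-well plates; 48 h exposure; 5 concentrations. Endpoints by linear interpolation between flanking doses. Not reached: highest tested concentration assigned. GI50 = concentration required for 50% inhibition of growth. TGI is the concentration that stops growth completely.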

Test system: NCI-H322M lung
Experiment: inhibition of tumour cell growth, NCI panel, 48 h

Point of comparison: `C/C=C\C(=O)O[C@@H]1CC2O[C@@H]3C=C(C)C(=O)C[C@]3(C)[C@]1(C)[C@]21CO1`, GI50 0.7 µM. Against it:
- CN1CCN(Cc2ccc(NC(=O)c3cncc(C#Cc4cnc5ccc(NCCCO)nn45)c3)cc2C(F)(F)F)CC1 — 4.5-fold lower, 0.154 µM
- Fc1ccc(-c2cc3nc(C(Cl)Cl)nc(-c4ccc(F)cc4)n3n2)cc1 — within 1.5-fold, 0.909 µM
- COc1cc(/C=N/n2cnc3oc(-c4ccccc4)cc3c2=N)cc(CN2CCCCC2)c1O — 2.6-fold higher, 1.79 µM
- CC[C@@H](CO)Nc1ccc2ncc(C#Cc3cncc(C(=O)Nc4ccc(CN5CCN(C)CC5)c(C(F)(F)F)c4)c3)n2n1 — 4.5-fold lower, 0.155 µM

Point of comparison: `CN1CCN(Cc2ccc(NC(=O)c3cncc(C#Cc4cnc5ccc(NCCCO)nn45)c3)cc2C(F)(F)F)CC1`, TGI 0.572 µM. Against it:
- Fc1ccc(-c2cc3nc(C(Cl)Cl)nc(-c4ccc(F)cc4)n3n2)cc1 — 5.1-fold higher, 2.89 µM
- COc1cc(/C=N/n2cnc3oc(-c4ccccc4)cc3c2=N)cc(CN2CCCCC2)c1O — 5.9-fold higher, 3.4 µM
- CC[C@@H](CO)Nc1ccc2ncc(C#Cc3cncc(C(=O)Nc4ccc(CN5CCN(C)CC5)c(C(F)(F)F)c4)c3)n2n1 — within 1.5-fold, 0.583 µM
- C/C=C\C(=O)O[C@@H]1CC2O[C@@H]3C=C(C)C(=O)C[C@]3(C)[C@]1(C)[C@]21CO1 — 4.4-fold higher, 2.53 µM
